The labels stand for the following.
B1: ZNF367, Q7RTV3 (protein)
chain: MIRGFEAPMAENPPPPPPPVIFCHDSPKRVLVSVIRTTPIKPTCGGGGEPEPPPPLIPTSPGFSDFMVYPWRWGENAHNVTLSPGAAGAAASAALPAAAAAEHSGLRGRGAPPPAASASAAASGGEDEEEASSPDSGHLKDGIRRGRPRADTVRDLINEGEHSSSRIRCNICNRVFPREKSLQAHKRTHTGERPYLCDYPDCGKAFVQSGQLKTHQRLHTGEKPFVCSENGCLSRFTHANRHCPKHPYARLKREEPTDTLSKHQAADNKAAAEWLARYWEMREQRTPTLKGKLVQKADQEQQDPLEYLQSDEEDDEKRGAQRRLQEQRERLHGALALIELANLTGAPLRQ
B2: HLF, Q16534 (protein)
chain: MEKMSRPLPLNPTFIPPPYGVLRSLLENPLKLPLHHEDAFSKDKDKEKKLDDESNSPTVPQSAFLGPTLWDKTLPYDGDTFQLEYMDLEEFLSENGIPPSPSQHDHSPHPPGLQPASSAAPSVMDLSSRASAPLHPGIPSPNCMQSPIRPGQLLPANRNTPSPIDPDTIQVPVGYEPDPADLALSSIPGQEMFDPRKRKFSEEELKPQPMIKKARKVFIPDDLKDDKYWARRRKNNMAAKRSRDARRLKENQIAIRASFLEKENSALRQEVADLRKELGKCKNILAKYEARHGPL
B3: FOXS1, O43638 (protein)
chain: MQQQPLPGPGAPTTEPTKPPYSYIALIAMAIQSSPGQRATLSGIYRYIMGRFAFYRHNRPGWQNSIRHNLSLNECFVKVPRDDRKPGKGSYWTLDPDCHDMFEHGSFLRRRRRFTRQTGAEGTRGPAKARRGPLRATSQDPGVPNATTGRQCSFPPELPDPKGLSFGGLVGAMPASMCPATTDGRPRPPMEPKEISTPKPACPGELPVATSSSSCPAFGFPAGFSEAESFNKAPTPVLSPESGIGSSYQCRLQALNFCMGADPGLEHLLASAAPSPAPPTPPGSLRAPLPLPTDHKEPWVAGGFPVQGGSGYPLGLTPCLYRTPGMFFFE
B4: KDM3A, Q9Y4C1 (protein)
chain: MVLTLGESWPVLVGRRFLSLSAADGSDGSHDSWDVERVAEWPWLSGTIRAVSHTDVTKKDLKVCVEFDGESWRKRRWIEVYSLLRRAFLVEHNLVLAERKSPEISERIVQWPAITYKPLLDKAGLGSITSVRFLGDQQRVFLSKDLLKPIQDVNSLRLSLTDNQIVSKEFQALIVKHLDESHLLKGDKNLVGSEVKIYSLDPSTQWFSATVINGNPASKTLQVNCEEIPALKIVDPSLIHVEVVHDNLVTCGNSARIGAVKRKSSENNGTLVSKQAKSCSEASPSMCPVQSVPTTVFKEILLGCTAATPPSKDPRQQSTPQAANSPPNLGAKIPQGCHKQSLPEEISSCLNTKSEALRTKPDVCKAGLLSKSSQIGTGDLKILTEPKGSCTQPKTNTDQENRLESVPQALTGLPKECLPTKASSKAELEIANPPELQKHLEHAPSPSDVSNAPEVKAGVNSDSPNNCSGKKVEPSALACRSQNLKESSVKVDNESCCSRSNNKIQNAPSRKSVLTDPAKLKKLQQSGEAFVQDDSCVNIVAQLPKCRECRLDSLRKDKEQQKDSPVFCRFFHFRRLQFNKHGVLRVEGFLTPNKYDNEAIGLWLPLTKNVVGIDLDTAKYILANIGDHFCQMVISEKEAMSTIEPHRQVAWKRAVKGVREMCDVCDTTIFNLHWVCPRCGFGVCVDCYRMKRKNCQQGAAYKTFSWLKCVKSQIHEPENLMPTQIIPGKALYDVGDIVHSVRAKWGIKANCPCSNRQFKLFSKPASKEDLKQTSLAGEKPTLGAVLQQNPSVLEPAAVGGEAASKPAGSMKPACPASTSPLNWLADLTSGNVNKENKEKQPTMPILKNEIKCLPPLPPLSKSSTVLHTFNSTILTPVSNNNSGFLRNLLNSSTGKTENGLKNTPKILDDIFASLVQNKTTSDLSKRPQGLTIKPSILGFDTPHYWLCDNRLLCLQDPNNKSNWNVFRECWKQGQPVMVSGVHHKLNSELWKPESFRKEFGEQEVDLVNCRTNEIITGATVGDFWDGFEDVPNRLKNEKEPMVLKLKDWPPGEDFRDMMPSRFDDLMANIPLPEYTRRDGKLNLASRLPNYFVRPDLGPKMYNAYGLITPEDRKYGTTNLHLDVSDAANVMVYVGIPKGQCEQEEEVLKTIQDGDSDELTIKRFIEGKEKPGALWHIYAAKDTEKIREFLKKVSEEQGQENPADHDPIHDQSWYLDRSLRKRLHQEYGVQGWAIVQFLGDVVFIPAGAPHQVHNLYSCIKVAEDFVSPEHVKHCFWLTQEFRYLSQTHTNHEDKLQVKNVIYHAVKDAVAMLKASESSFGKP
B5: TCF19, Q9Y242 (protein)
chain: MLPCFQLLRIGGGRGGDLYTFHPPAGAGCTYRLGHRADLCDVALRPQQEPGLISGIHAELHAEPRGDDWRVSLEDHSSQGTLVNNVRLPRGHRLELSDGDLLTFGPEGPPGTSPSEFYFMFQQVRVKPQDFAAITIPRSRGEARVGAGFRPMLPSQGAPQRPLSTFSPAPKATLILNSIGSLSKLRPQPLTFSPSWGGPKSLPVPAPPGEMGTTPSAPPQRNRRKSVHRVLAELDDESEPPENPPPVLMEPRKKLRVDKAPLTPTGNRRGRPRKYPVSAPMAPPAVGGGEPCAAPCCCLPQEETVAWVQCDGCDVWFHVACVGCSIQAAREADFRCPGCRAGIQT
B6: TBP, P20226 (protein)
chain: MDQNNSLPPYAQGLASPQGAMTPGIPIFSPMMPYGTGLTPQPIQNTNSLSILEEQQRQQQQQQQQQQQQQQQQQQQQQQQQQQQQQQQQQQQQQQAVAAAAVQQSTSQQATQGTSGQAPQLFHSQTLTTAPLPGTTPLYPSPMTPMTPITPATPASESSGIVPQLQNIVSTVNLGCKLDLKTIALRARNAEYNPKRFAAVIMRIREPRTTALIFSSGKMVCTGAKSEEQSRLAARKYARVVQKLGFPAKFLDFKIQNMVGSCDVKFPIRLEGLVLTHQQFSSYEPELFPGLIYRMIKPRIVLLIFVSGKVVLTGAKVRAEIYEAFENIYPILKGFRKTT
B7: ZNF281, Q9Y2X9 (protein)
chain: MKIGSGFLSGGGGTGSSGGSGSGGGGSGGGGGGGSSGRRAEMEPTFPQGMVMFNHRLPPVTSFTRPAGSAAPPPQCVLSSSTSAAPAAEPPPPPAPDMTFKKEPAASAAAFPSQRTSWGFLQSLVSIKQEKPADPEEQQSHHHHHHHHYGGLFAGAEERSPGLGGGEGGSHGVIQDLSILHQHVQQQPAQHHRDVLLSSSSRTDDHHGTEEPKQDTNVKKAKRPKPESQGIKAKRKPSASSKPSLVGDGEGAILSPSQKPHICDHCSAAFRSSYHLRRHVLIHTGERPFQCSQCSMGFIQKYLLQRHEKIHSREKPFGCDQCSMKFIQKYHMERHKRTHSGEKPYKCDTCQQYFSRTDRLLKHRRTCGEVIVKGATSAEPGSSNHTNMGNLAVLSQGNTSSSRRKTKSKSIAIENKEQKTGKTNESQISNNINMQSYSVEMPTVSSSGGIIGTGIDELQKRVPKLIFKKGSRKNTDKNYLNFVSPLPDIVGQKSLSGKPSGSLGIVSNNSVETIGLLQSTSGKQGQISSNYDDAMQFSKKRRYLPTASSNSAFSINVGHMVSQQSVIQSAGVSVLDNEAPLSLIDSSALNAEIKSCHDKSGIPDEVLQSILDQYSNKSESQKEDPFNIAEPRVDLHTSGEHSELVQEENLSPGTQTPSNDKASMLQEYSKYLQQAFEKSTNASFTLGHGFQFVSLSSPLHNHTLFPEKQIYTTSPLECGFGQSVTSVLPSSLPKPPFGMLFGSQPGLYLSALDATHQQLTPSQELDDLIDSQKNLETSSAFQSSSQKLTSQKEQKNLESSTGFQIPSQELASQIDPQKDIEPRTTYQIENFAQAFGSQFKSGSRVPMTFITNSNGEVDHRVRTSVSDFSGYTNMMSDVSEPCSTRVKTPTSQSYR
B8: ESR1, P03372 (protein)
chain: MTMTLHTKASGMALLHQIQGNELEPLNRPQLKIPLERPLGEVYLDSSKPAVYNYPEGAAYEFNAAAAANAQVYGQTGLPYGPGSEAAAFGSNGLGGFPPLNSVSPSPLMLLHPPPQLSPFLQPHGQQVPYYLENEPSGYTVREAGPPAFYRPNSDNRRQGGRERLASTNDKGSMAMESAKETRYCAVCNDYASGYHYGVWSCEGCKAFFKRSIQGHNDYMCPATNQCTIDKNRRKSCQACRLRKCYEVGMMKGGIRKDRRGGRMLKHKRQRDDGEGRGEVGSAGDMRAANLWPSPLMIKRSKKNSLALSLTADQMVSALLDAEPPILYSEYDPTRPFSEASMMGLLTNLADRELVHMINWAKRVPGFVDLTLHDQVHLLECAWLEILMIGLVWRSMEHPGKLLFAPNLLLDRNQGKCVEGMVEIFDMLLATSSRFRMMNLQGEEFVCLKSIILLNSGVYTFLSSTLKSLEEKDHIHRVLDKITDTLIHLMAKAGLTLQQQHQRLAQLLLILSHIRHMSNKGMEHLYSMKCKNVVPLYDLLLEMLDAHRLHAPTSRGGASVEETDQSHLATAGSTSSHSLQKYYITGEAEGFPATV
B9: STAT5B, P51692 (protein)
chain: MAVWIQAQQLQGEALHQMQALYGQHFPIEVRHYLSQWIESQAWDSVDLDNPQENIKATQLLEGLVQELQKKAEHQVGEDGFLLKIKLGHYATQLQNTYDRCPMELVRCIRHILYNEQRLVREANNGSSPAGSLADAMSQKHLQINQTFEELRLVTQDTENELKKLQQTQEYFIIQYQESLRIQAQFGPLAQLSPQERLSRETALQQKQVSLEAWLQREAQTLQQYRVELAEKHQKTLQLLRKQQTIILDDELIQWKRRQQLAGNGGPPEGSLDVLQSWCEKLAEIIWQNRQQIRRAEHLCQQLPIPGPVEEMLAEVNATITDIISALVTSTFIIEKQPPQVLKTQTKFAATVRLLVGGKLNVHMNPPQVKATIISEQQAKSLLKNENTRNDYSGEILNNCCVMEYHQATGTLSAHFRNMSLKRIKRSDRRGAESVTEEKFTILFESQFSVGGNELVFQVKTLSLPVVVIVHGSQDNNATATVLWDNAFAEPGRVPFAVPDKVLWPQLCEALNMKFKAEVQSNRGLTKENLVFLAQKLFNNSSSHLEDYSGLSVSWSQFNRENLPGRNYTFWQWFDGVMEVLKKHLKPHWNDGAILGFVNKQQAHDLLINKPDGTFLLRFSDSEIGGITIAWKFDSQERMFWNLMPFTTRDFSIRSLADRLGDLNYLIYVFPDRPKDEVYSKYYTPVPCESATAKAVDGYVKPQIKQVVPEFVNASADAGGGSATYMDQAPSPAVCPQAHYNMYPQNPDSVLDTDGDFDLEDTMDVARRVEELLGRPMDSQWIPHAQS

Some of the results follow. Binding of human transcription factors and regulators to the viral nucleoprotein by AlphaScreen, crude cell-free proteins, amounts not normalised, one pass. Fold of the Venus control; higher = more signal. No active / inactive call. Single-pass screen; sequences are the whole Swiss-Prot entries looked up by name.

For the assay, the target named is nucleoprotein N of Crimean-Congo hemorrhagic fever virus. The assay is described as follows: AlphaScreen luminescence signal relative to Venus negative control (fold); higher = stronger binding to CCHFV N. How it is done:
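AlphaScreen binding of cell-free made, FLAG-GST-tagged human transcription factors and regulators (crude translation products) to biotinylated N protein; signal as fold of the FLAG-GST-Venus control. One pass.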
In turn, B1 showed an AlphaScreen luminescence signal of 2.74. For B2, the AlphaScreen luminescence signal turned out to be 4.19. The molecule B3 returned an AlphaScreen luminescence signal of 2.56.

Consider B4, for which the AlphaScreen luminescence signal was found to be 2.37. Next, B5: 3.21.

In turn, B6 yielded an AlphaScreen luminescence signal of 2.09.

In the case of B7, the AlphaScreen luminescence signal was 2.47. Next, B8: 3.12; B9: 2.14.

The values are drawn from the supplement of paper PMC12423691.
